± gives the standard error. For some of these results: Variants at the floor of the assay are shown more often than the library holds them.
B1: glmS ribozyme (parent)
chain: AUAAAAGCGCCAGAACUACAGAAAUGUAGUUGACGAGGAGGAGGUUUAUCGAAUUUUCGGCGGAUGCCUCCAAA

Legend:
Details in all cases: with glucosamine-6-phosphate
glucosamine-6-phosphate [1] = variants of: B1; test: self-cleavage kobs at 640 uM GlcN6P; higher = faster cleavage; RNA array
Outline: (§1)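 Over ~14 h at 37 °C, tiles were imaged as glucosamine-6-phosphate (40 μM to 10 mM) in HEPES/KCl/Mg(OAc)2 buffer flowed across sequenced MiSeq chips. The chips carried barcoded ribozyme variants transcribed in situ by E. coli RNA polymerase and tracked with a hybridised Cy3 probe. After normalisation to baseline and to non-cleaving reference variants, one- or two-exponential decay fits of per-tile medians gave kobs. kcat and KM followed from weighted Michaelis–Menten fits across concentrations.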

glucosamine-6-phosphate [2] = variants of: B1; test: self-cleavage kobs at 2500 uM GlcN6P; higher = faster cleavage; RNA array
Outline: as §1

glucosamine-6-phosphate [3] = variants of: B1; test: self-cleavage kobs at 160 uM GlcN6P; higher = faster cleavage; RNA array
Outline: as §1

glucosamine-6-phosphate [4] = variants of: B1; test: self-cleavage kobs at 10000 uM GlcN6P; higher = faster cleavage; RNA array
Outline: as §1

Row | Variant | self-cleavage kobs at 640 uM GlcN6P (glucosamine-6-phosphate [1]) [s⁻¹] | self-cleavage kobs at 2500 uM GlcN6P (glucosamine-6-phosphate [2]) [s⁻¹] | self-cleavage kobs at 160 uM GlcN6P (glucosamine-6-phosphate [3]) [s⁻¹] | self-cleavage kobs at 10000 uM GlcN6P (glucosamine-6-phosphate [4]) [s⁻¹]
1 | G35U G41A G59A | < 1e-05 | < 1e-05 | – | –
2 | A36U G37U A48U G60A U65C C67G | < 1e-05 | – | – | –
3 | G29C G37A G51A | < 1e-05 | – | – | –
4 | A39C A52G G63A | < 1e-05 | < 1e-05 | < 1e-05 | –
5 | A33C G62U A64C | < 1e-05 | < 1e-05 | – | –
6 | G38C A48C G66U | < 1e-05 | – | – | –
7 | A33U U54A C70A | 5.86e-05 ± 2e-05 | – | – | –
8 | G37A U49C | < 1e-05 | – | < 1e-05 | –
9 | G38C U55A A64C | < 1e-05 | – | – | –
10 | U30C G37A A53C U55G | < 1e-05 | – | < 1e-05 | –
11 | G35C A53U U55G | < 1e-05 | < 1e-05 | < 1e-05 | –
12 | G29C G62U G66U | < 1e-05 | – | – | –
13 | G29C G44A A64C | < 1e-05 | < 1e-05 | – | –
14 | G38A C58U C68G | 5.5e-05 ± 2.5e-05 | – | – | –
15 | U30G G32A A48G G62C | < 1e-05 | < 1e-05 | < 1e-05 | –
16 | A33U G35U U54A | < 1e-05 | – | – | < 1e-05

Row | Variant | self-cleavage kobs at 640 uM GlcN6P (glucosamine-6-phosphate [1]) [s⁻¹] | self-cleavage kobs at 2500 uM GlcN6P (glucosamine-6-phosphate [2]) [s⁻¹] | self-cleavage kobs at 160 uM GlcN6P (glucosamine-6-phosphate [3]) [s⁻¹] | self-cleavage kobs at 10000 uM GlcN6P (glucosamine-6-phosphate [4]) [s⁻¹]
17 | G29U U30G G32C G41U U49C C58U G62A | < 1e-05 | < 1e-05 | < 1e-05 | –
18 | A36C A39G C68U | < 1e-05 | – | < 1e-05 | –
19 | A36G G44U G63A | < 1e-05 | < 1e-05 | – | –
20 | G29C G35U A36C | < 1e-05 | < 1e-05 | – | –
21 | G37A U47G U55G | 0.000101 ± 1.6e-05 | 0.000183 ± 2.9e-05 | – | 0.000412 ± 6.3e-05
22 | G32U A42U A53G | < 1e-05 | – | < 1e-05 | –
23 | G35A G41A C50A | < 1e-05 | – | – | –
24 | U30C A33U G60C A64U C70U | < 1e-05 | – | – | –
25 | A36C A53G G66U | < 1e-05 | < 1e-05 | – | –
26 | U30G C34A C68A | < 1e-05 | – | – | –
27 | G32A G37C G51U A53C | < 1e-05 | – | – | –
28 | G35C U47G | < 1e-05 | – | < 1e-05 | –
29 | A33U C50G G51U A52U | < 1e-05 | < 1e-05 | – | –
30 | G32U G44U G51U C70U | < 1e-05 | < 1e-05 | < 1e-05 | –
31 | G32C U45G A48U C68G C71U | < 1e-05 | < 1e-05 | – | –
32 | U31A G32A G59U G62A | < 1e-05 | – | – | –
